Experimental data: paper PMC5062570 (Nature Communications, 2016)

Key:
[1] = target: PF-7802-labelled proteins in ARPE-19 cells (Homo sapiens, UniProt O95292); conditions: VAPB Vesicle-associated membrane protein-associated protein B/C (O95292)
[2] = target: PF-7802-labelled proteins in ARPE-19 cells (Homo sapiens, UniProt P02545)
[3] = target: PF-7802-labelled proteins in ARPE-19 cells (Homo sapiens, UniProt P05783); conditions: protein KRT18 Keratin, type I cytoskeletal 18 (P05783); one column per replicate
[4] = target: PF-7802-labelled proteins in ARPE-19 cells (Homo sapiens, UniProt P06753); conditions: TPM3 Tropomyosin alpha-3 chain (P06753)
[5] = target: PF-7802-labelled proteins in ARPE-19 cells (Homo sapiens, UniProt P09429); conditions: protein HMGB1 High mobility group protein B1 (P09429); one column per replicate
[6] = target: PF-7802-labelled proteins in ARPE-19 cells (Homo sapiens, UniProt P10619); conditions: protein CTSA Lysosomal protective protein (P10619)
[7] = target: PF-7802-labelled proteins in ARPE-19 cells (Homo sapiens, UniProt P61158); conditions: protein ACTR3 Actin-related protein 3 (P61158)
[8] = target: PF-7802-labelled proteins in ARPE-19 cells (Homo sapiens, UniProt Q16643); conditions: Q16643 DBN1 Drebrin
[9] = target: PF-7802-labelled proteins in ARPE-19 cells (Homo sapiens, UniProt Q96JH7); conditions: VCPIP1 Deubiquitinating protein VCIP135 (Q96JH7)
[10] = target: PF-7802-labelled proteins in ARPE-19 cells (Homo sapiens, UniProt Q9NX14); conditions: protein NDUFB11 NADH dehydrogenase [ubiquinone] 1 beta subcomplex subunit 11, mitochondrial (Q9NX14); replicates in separate columns
[11] = target: PF-7802-labelled proteins in ARPE-19 cells (Homo sapiens, UniProt A0A8I5KQE6); conditions: protein RPSAP58 Protein RPSAP58, A6NE09
[12] = target: PF-7802-labelled proteins in ARPE-19 cells (Homo sapiens, UniProt O75947); conditions: protein ATP5H ATP synthase subunit d, mitochondrial (O75947)
[13] = target: PF-7802-labelled proteins in ARPE-19 cells (Homo sapiens, UniProt O76013); conditions: protein KRT36 Keratin, type I cuticular Ha6 (O76013); one column per replicate
[14] = target: PF-7802-labelled proteins in ARPE-19 cells (Homo sapiens, UniProt O95232); conditions: […]; replicates in separate columns
[15] = target: PF-7802-labelled proteins in ARPE-19 cells (Homo sapiens, UniProt P05166); conditions: protein PCCB Propionyl-CoA carboxylase beta chain, mitochondrial (P05166); replicates in separate columns
[16] = target: PF-7802-labelled proteins in ARPE-19 cells (Homo sapiens, UniProt P08574); conditions: protein CYC1 Cytochrome c1, heme protein, mitochondrial (P08574)
[17] = target: PF-7802-labelled proteins in ARPE-19 cells (Homo sapiens, UniProt P35914); conditions: protein HMGCL Hydroxymethylglutaryl-CoA lyase, mitochondrial (P35914); one column per replicate
[18] = target: PF-7802-labelled proteins in ARPE-19 cells (Homo sapiens, UniProt P61916); conditions: protein NPC2 Epididymal secretory protein E1 (P61916); replicates in separate columns
[19] = target: PF-7802-labelled proteins in ARPE-19 cells (Homo sapiens, UniProt P62829); conditions: protein RPL23 60S ribosomal protein L23, P62829
[20] = target: PF-7802-labelled proteins in ARPE-19 cells (Homo sapiens, UniProt Q13162); conditions: protein PRDX4 Peroxiredoxin-4, Q13162
[21] = target: PF-7802-labelled proteins in ARPE-19 cells (Homo sapiens, UniProt Q16881); conditions: TXNRD1 Thioredoxin reductase 1, cytoplasmic (Q16881)
[22] = target: PF-7802-labelled proteins in ARPE-19 cells (Homo sapiens, UniProt Q3ZCQ8); conditions: TIMM50 Mitochondrial import inner membrane translocase subunit TIM50 (Q3ZCQ8)
[23] = target: PF-7802-labelled proteins in ARPE-19 cells (Homo sapiens, UniProt Q53TN4); conditions: protein CYBRD1 Cytochrome b reductase 1 (Q53TN4)
[24] = target: PF-7802-labelled proteins in ARPE-19 cells (Homo sapiens, UniProt Q5TB80); conditions: protein KIAA1009 Protein QN1 homolog (Q5TB80); one column per replicate
[25] = target: PF-7802-labelled proteins in ARPE-19 cells (Homo sapiens, UniProt Q9HD20); conditions: protein ATP13A1 Probable cation-transporting ATPase 13A1 (Q9HD20)
[26] = target: PF-7802-labelled proteins in ARPE-19 cells (Homo sapiens, UniProt Q9HDC9); conditions: protein APMAP Adipocyte plasma membrane-associated protein (Q9HDC9)
[27] = target: PF-7802-labelled proteins in ARPE-19 cells (Homo sapiens, UniProt Q9Y696); conditions: protein CLIC4 Chloride intracellular channel protein 4 (Q9Y696)
Chain of UniProt Q9Y696 (Q9Y696 whole entry): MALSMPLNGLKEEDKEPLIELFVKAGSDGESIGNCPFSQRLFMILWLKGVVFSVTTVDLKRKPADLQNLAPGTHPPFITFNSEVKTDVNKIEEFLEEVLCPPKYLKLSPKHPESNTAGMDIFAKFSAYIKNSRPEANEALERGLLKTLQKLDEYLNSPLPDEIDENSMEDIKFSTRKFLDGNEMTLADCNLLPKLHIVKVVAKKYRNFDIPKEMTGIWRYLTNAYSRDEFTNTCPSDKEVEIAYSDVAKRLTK

Chain of UniProt Q16881 (Q16881 whole entry): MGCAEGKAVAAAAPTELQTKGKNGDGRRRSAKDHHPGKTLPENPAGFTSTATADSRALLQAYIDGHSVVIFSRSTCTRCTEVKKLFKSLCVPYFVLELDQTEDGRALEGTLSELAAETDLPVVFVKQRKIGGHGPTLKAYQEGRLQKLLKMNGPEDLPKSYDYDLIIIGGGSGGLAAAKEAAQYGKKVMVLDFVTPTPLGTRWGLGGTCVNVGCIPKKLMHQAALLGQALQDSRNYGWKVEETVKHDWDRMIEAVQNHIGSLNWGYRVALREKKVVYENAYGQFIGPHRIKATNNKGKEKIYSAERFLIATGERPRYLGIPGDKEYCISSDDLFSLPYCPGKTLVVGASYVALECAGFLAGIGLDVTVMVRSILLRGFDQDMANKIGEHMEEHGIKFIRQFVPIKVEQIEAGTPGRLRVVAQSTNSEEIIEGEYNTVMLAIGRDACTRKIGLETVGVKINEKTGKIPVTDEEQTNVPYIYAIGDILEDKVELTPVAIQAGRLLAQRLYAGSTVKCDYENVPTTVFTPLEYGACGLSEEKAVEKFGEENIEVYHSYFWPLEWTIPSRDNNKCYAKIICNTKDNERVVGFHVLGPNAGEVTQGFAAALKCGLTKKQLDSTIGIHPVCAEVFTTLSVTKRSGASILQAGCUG
Chain of UniProt P02545 (P02545 whole entry): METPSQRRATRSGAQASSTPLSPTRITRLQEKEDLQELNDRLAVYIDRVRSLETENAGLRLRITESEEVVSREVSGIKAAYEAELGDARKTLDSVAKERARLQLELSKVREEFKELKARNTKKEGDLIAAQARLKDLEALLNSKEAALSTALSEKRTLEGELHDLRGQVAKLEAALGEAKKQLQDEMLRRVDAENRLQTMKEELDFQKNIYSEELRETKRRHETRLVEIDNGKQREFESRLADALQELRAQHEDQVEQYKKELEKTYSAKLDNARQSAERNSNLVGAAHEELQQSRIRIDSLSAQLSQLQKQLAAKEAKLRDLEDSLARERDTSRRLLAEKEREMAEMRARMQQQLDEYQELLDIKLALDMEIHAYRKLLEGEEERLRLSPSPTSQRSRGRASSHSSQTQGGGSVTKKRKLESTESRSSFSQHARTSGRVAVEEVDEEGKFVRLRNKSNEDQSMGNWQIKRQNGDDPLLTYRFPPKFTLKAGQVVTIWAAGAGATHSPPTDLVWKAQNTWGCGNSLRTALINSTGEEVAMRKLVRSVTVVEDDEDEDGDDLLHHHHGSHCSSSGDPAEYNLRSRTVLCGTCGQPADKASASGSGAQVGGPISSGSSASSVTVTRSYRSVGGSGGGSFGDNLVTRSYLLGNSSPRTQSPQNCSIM
Chain of UniProt Q9HDC9 (Q9HDC9 whole entry): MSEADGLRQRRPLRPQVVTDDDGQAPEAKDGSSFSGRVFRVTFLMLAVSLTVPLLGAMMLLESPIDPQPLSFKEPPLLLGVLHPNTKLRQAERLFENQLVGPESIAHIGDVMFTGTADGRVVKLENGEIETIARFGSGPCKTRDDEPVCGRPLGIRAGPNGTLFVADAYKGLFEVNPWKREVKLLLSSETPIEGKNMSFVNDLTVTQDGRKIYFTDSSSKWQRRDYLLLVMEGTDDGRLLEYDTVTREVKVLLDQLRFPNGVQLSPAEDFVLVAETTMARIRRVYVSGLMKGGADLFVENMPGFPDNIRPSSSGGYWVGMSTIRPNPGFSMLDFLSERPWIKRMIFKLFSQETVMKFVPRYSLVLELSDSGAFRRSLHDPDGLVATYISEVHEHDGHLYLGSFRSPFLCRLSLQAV
Chain of UniProt Q96JH7 (Q96JH7 whole entry): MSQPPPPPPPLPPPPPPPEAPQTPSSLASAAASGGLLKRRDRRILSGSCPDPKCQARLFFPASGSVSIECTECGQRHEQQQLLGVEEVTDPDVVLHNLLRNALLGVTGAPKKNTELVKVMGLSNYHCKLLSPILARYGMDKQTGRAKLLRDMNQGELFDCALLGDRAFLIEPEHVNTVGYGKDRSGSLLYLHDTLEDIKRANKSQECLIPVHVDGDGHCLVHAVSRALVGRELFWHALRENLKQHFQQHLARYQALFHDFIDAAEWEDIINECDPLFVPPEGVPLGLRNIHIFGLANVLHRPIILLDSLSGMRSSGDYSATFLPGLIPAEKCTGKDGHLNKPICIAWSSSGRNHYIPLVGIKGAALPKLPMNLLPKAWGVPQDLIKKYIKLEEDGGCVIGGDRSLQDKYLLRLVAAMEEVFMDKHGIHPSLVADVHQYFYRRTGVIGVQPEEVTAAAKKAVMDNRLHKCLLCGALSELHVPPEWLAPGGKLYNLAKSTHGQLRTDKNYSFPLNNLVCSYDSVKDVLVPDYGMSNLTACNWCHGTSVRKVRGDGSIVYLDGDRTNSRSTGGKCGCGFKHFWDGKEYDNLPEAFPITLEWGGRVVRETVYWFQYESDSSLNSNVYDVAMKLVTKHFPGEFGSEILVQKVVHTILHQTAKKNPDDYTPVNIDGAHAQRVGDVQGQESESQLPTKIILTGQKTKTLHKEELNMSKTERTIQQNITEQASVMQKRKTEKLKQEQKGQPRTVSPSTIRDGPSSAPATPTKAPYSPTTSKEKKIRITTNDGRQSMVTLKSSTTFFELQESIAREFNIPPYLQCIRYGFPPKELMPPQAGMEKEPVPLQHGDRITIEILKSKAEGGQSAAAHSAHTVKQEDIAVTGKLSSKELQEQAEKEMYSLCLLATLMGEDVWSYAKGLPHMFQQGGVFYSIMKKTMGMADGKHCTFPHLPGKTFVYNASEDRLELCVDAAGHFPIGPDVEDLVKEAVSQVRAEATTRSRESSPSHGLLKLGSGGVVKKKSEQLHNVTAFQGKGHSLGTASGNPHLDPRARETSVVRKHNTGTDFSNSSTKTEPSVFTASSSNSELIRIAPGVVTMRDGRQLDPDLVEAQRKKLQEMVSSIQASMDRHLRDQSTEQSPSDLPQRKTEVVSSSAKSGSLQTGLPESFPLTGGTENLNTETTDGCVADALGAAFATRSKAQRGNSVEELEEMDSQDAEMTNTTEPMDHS
Chain of UniProt Q53TN4 (Q53TN4 whole entry): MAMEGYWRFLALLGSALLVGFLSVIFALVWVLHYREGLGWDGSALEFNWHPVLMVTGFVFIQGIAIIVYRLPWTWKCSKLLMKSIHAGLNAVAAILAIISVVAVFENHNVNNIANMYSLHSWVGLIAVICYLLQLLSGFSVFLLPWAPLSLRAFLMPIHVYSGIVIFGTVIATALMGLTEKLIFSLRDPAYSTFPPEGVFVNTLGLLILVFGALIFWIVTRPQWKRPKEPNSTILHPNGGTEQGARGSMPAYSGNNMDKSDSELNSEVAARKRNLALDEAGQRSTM
Chain of UniProt Q5TB80 (Q5TB80 whole entry): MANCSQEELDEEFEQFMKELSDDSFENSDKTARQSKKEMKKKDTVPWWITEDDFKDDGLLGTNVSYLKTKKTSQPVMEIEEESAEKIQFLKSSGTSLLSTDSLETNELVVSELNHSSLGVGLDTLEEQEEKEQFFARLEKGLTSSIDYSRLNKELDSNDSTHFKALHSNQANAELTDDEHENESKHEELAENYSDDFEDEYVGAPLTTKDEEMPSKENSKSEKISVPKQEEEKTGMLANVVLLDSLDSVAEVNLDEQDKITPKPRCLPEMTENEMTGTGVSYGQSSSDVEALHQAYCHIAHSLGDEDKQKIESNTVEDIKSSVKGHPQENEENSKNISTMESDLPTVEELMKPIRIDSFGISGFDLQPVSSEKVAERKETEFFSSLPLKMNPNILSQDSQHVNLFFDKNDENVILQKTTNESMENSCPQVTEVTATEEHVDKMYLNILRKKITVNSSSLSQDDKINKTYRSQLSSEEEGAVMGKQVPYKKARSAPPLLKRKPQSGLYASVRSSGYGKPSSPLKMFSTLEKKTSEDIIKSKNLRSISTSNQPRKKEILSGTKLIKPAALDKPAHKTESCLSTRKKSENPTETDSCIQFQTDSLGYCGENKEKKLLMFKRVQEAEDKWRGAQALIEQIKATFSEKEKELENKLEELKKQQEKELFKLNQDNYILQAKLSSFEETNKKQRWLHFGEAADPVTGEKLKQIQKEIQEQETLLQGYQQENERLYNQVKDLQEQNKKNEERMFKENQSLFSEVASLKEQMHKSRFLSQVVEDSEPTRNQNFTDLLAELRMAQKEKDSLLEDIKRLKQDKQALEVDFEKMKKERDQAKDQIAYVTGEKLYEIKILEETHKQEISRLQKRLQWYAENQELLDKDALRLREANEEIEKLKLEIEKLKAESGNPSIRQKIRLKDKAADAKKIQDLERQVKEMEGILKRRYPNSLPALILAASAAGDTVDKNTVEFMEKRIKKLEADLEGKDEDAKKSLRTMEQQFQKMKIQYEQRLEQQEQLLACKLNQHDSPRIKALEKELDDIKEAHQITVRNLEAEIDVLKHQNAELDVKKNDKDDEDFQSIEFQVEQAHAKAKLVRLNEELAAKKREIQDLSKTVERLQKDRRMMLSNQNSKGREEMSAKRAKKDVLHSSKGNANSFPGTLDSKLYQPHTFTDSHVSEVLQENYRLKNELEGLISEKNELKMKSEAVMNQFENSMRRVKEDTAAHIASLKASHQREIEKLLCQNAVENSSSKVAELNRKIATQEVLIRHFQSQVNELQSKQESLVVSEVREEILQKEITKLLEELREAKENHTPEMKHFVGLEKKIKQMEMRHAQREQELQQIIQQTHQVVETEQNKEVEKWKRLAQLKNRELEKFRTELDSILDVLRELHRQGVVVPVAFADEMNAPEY

Question: CNC1CCN(C(=O)C[C@@H](Cc2ccccc2)C(=O)N[C@@H](CSC)C(=O)N[C@@H](CC2CCCCC2)[C@@H](O)C(=O)OC(C)C)CC1 [CP-108671, reference compound] was tested. Which “Median SILAC Ratio (Heavy/Light)” value [1] did it give?
Answer: 1.521

Question: And the “SILAC ratio (DMSO/CP-108671)” value ([2]; P02545 LMNA Prelamin-A/C)?
Answer: 0.85

Question: And the “Median SILAC Ratio (Heavy/Light)” value ([2]; protein LMNA Prelamin-A/C (P02545), replicates in separate columns)?
Answer: 1.17

Question: And the “Median SILAC Ratio (Heavy/Light)” value [3]?
Answer: 1.044

Question: And the “Median SILAC Ratio (Heavy/Light)” value [4]?
Answer: 1.679

Question: What about the “Median SILAC Ratio (Heavy/Light)” value [5] of the same molecule?
Answer: 2.053

Question: And the “Median SILAC Ratio (Heavy/Light)” value [6]?
Answer: 0.6539

Question: What about the “Median SILAC Ratio (Heavy/Light)” value [7] of the same molecule?
Answer: 1.541

Question: What about the “SILAC ratio (DMSO/CP-108671)” value [8] of the same molecule?
Answer: 0.80

Question: What about the “Median SILAC Ratio (Heavy/Light)” value [9] of the same molecule?
Answer: 18.2648

Question: What about the “Median SILAC Ratio (Heavy/Light)” value [10] of the same molecule?
Answer: 1.135

Question: With Cc1cc([C@H]2C[C@H]3[C@@H](C)SC(N)=N[C@@]3(c3ccc(F)cc3F)CO2)on1 [PF-9283] as the molecule, how does the “Median SILAC Ratio (Heavy/Light)” value [11] read?
Answer: 1.593 and 2.041

Question: And the “Median SILAC Ratio (Heavy/Light)” value [12]?
Answer: 1.8

Question: And the “Median SILAC Ratio (Heavy/Light)” value [13]?
Answer: 92.0508

Question: What about the “Median SILAC Ratio (Heavy/Light)” value [14] of the same molecule?
Answer: 0.7405

Question: And the “Median SILAC Ratio (Heavy/Light)” value [15]?
Answer: 0.8933 and 1.076

Question: What about the “Median SILAC Ratio (Heavy/Light)” value [16] of the same molecule?
Answer: 1.424

Question: What about the “Median SILAC Ratio (Heavy/Light)” value [17] of the same molecule?
Answer: 1.531

Question: What about the “Median SILAC Ratio (Heavy/Light)” value [18] of the same molecule?
Answer: 0.6963 and 0.7218 and 1.705

Question: What about the “Median SILAC Ratio (Heavy/Light)” value [19] of the same molecule?
Answer: 1.182

Question: And the “Median SILAC Ratio (Heavy/Light)” value [20]?
Answer: 1.405

Question: And the “Median SILAC Ratio (Heavy/Light)” value [21]?
Answer: 1.388 and 0.9612

Question: And the “Median SILAC Ratio (Heavy/Light)” value [22]?
Answer: 1.63

Question: What about the “Median SILAC Ratio (Heavy/Light)” value [23] of the same molecule?
Answer: 194.384

Question: What about the “Median SILAC Ratio (Heavy/Light)” value [24] of the same molecule?
Answer: 1.33

Question: And the “Median SILAC Ratio (Heavy/Light)” value [25]?
Answer: 0.6552

Question: What about the “Median SILAC Ratio (Heavy/Light)” value [26] of the same molecule?
Answer: 1.173

Question: And the “Median SILAC Ratio (Heavy/Light)” value [27]?
Answer: 2.025

Values joined by “and” are separate entries in the source; they are usually repeats but may differ in a detail not shown here. Identical values can stand only once.
